# The full data set covers some 21,000 targets. This sample favours those with the largest changes.
# Compound: CC1Cc2ccccc2N1C(=O)C1CCCN(C1)C(=O)CCl (mixture of isomers) [TRIM25 ligand 11 (diastereomer mixture)]
# Assay: probe-labelled cysteine peptide fold change vs DMSO (competition) (log2 fold change); higher = less target engagement (more negative = stronger competition)
# Conditions: THP-1, incubation time: 4 h
# 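Further: competitive chemoproteomic profiling in live THP-1 cells with an iodoacetamide desthiobiotin (IA-DTB) probe, comparing probe-labelled peptide intensities in compound-treated cells against DMSO-treated controls.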
target,measurement,setting,value
PDCL_Q13371_291_NSATCHSEDSDLEID (UniProt Q13371),probe-labelled cysteine peptide fold change,10 µM,-0.177
same,probe-labelled cysteine peptide fold change,50 µM,-0.396
NRAS_P01111_51_KQVVIDGETCLLDILDTAGQEEYSAMRDQYMR<|>HRAS_P01112_51_KQVVIDGETCLLDILDTAGQEEYSAMRDQYMR (UniProt P01112+P01111),probe-labelled cysteine peptide fold change,10 µM,-0.585
same,probe-labelled cysteine peptide fold change,50 µM,-0.344
PCLAF_Q15004_99_ACPLQPDHTNDEKE (UniProt Q15004),probe-labelled cysteine peptide fold change,10 µM,-0.414
same,probe-labelled cysteine peptide fold change,50 µM,-0.612
P4HB_P07237_397_KNVFVEFYAPWCGHCK (UniProt P07237),probe-labelled cysteine peptide fold change,10 µM,-0.364
same,probe-labelled cysteine peptide fold change,50 µM,-0.687
NIT1_Q86X76_80_LGACLAFLPEAFDFIARDPAETLHLSEPLGGK (UniProt Q86X76),probe-labelled cysteine peptide fold change,10 µM,0.407
same,probe-labelled cysteine peptide fold change,50 µM,-0.633
NTPCR_Q9BSD7_101_NADCSSGPGQR (UniProt Q9BSD7),probe-labelled cysteine peptide fold change,10 µM,0.353
same,probe-labelled cysteine peptide fold change,50 µM,1.25
NF1_P21359_904_LLSLMVCNHEK (UniProt P21359),probe-labelled cysteine peptide fold change,10 µM,-0.0166
same,probe-labelled cysteine peptide fold change,50 µM,-0.0874
ODF2_Q5BJF6_708_ECGTLAR (UniProt Q5BJF6),probe-labelled cysteine peptide fold change,10 µM,0.00251
same,probe-labelled cysteine peptide fold change,50 µM,0.561
NRDC_O43847_690_IVNTPQGCLWYKK (UniProt O43847),probe-labelled cysteine peptide fold change,10 µM,-0.377
same,probe-labelled cysteine peptide fold change,50 µM,-0.143
NUDT16L1_Q9BRJ7_88_VLGLGLGCLR (UniProt Q9BRJ7),probe-labelled cysteine peptide fold change,10 µM,-0.224
same,probe-labelled cysteine peptide fold change,50 µM,-0.197
PARK7_Q99497_106_GLIAAICAGPTALLAHEIGFGSK (UniProt Q99497),probe-labelled cysteine peptide fold change,10 µM,-1.12
same,probe-labelled cysteine peptide fold change,50 µM,-4.02
NOA1_Q8NC60_272_LWEDCAR (UniProt Q8NC60),probe-labelled cysteine peptide fold change,10 µM,-0.113
same,probe-labelled cysteine peptide fold change,50 µM,0.116
NCF2_P19878_499_VNEEWLEGECK (UniProt P19878),probe-labelled cysteine peptide fold change,10 µM,0.0831
same,probe-labelled cysteine peptide fold change,50 µM,0.123

# — the supplement of paper PMC12067093, “Discovery and optimisation of a covalent ligand for TRIM25 and its application to targeted protein ubiquitination” (Chemical Science, 2025)
